# Data as given in the supplement of paper PMC3334620.
# The full ranking holds about 33,000 sequences; the median of “E-score (-0.5 to 0.5)” is about -0.035, and the highest 2% start at about 0.35. This is one part of the list.
# Target: T1, Pdr3 (UniProt P33200)
# T1 sequence: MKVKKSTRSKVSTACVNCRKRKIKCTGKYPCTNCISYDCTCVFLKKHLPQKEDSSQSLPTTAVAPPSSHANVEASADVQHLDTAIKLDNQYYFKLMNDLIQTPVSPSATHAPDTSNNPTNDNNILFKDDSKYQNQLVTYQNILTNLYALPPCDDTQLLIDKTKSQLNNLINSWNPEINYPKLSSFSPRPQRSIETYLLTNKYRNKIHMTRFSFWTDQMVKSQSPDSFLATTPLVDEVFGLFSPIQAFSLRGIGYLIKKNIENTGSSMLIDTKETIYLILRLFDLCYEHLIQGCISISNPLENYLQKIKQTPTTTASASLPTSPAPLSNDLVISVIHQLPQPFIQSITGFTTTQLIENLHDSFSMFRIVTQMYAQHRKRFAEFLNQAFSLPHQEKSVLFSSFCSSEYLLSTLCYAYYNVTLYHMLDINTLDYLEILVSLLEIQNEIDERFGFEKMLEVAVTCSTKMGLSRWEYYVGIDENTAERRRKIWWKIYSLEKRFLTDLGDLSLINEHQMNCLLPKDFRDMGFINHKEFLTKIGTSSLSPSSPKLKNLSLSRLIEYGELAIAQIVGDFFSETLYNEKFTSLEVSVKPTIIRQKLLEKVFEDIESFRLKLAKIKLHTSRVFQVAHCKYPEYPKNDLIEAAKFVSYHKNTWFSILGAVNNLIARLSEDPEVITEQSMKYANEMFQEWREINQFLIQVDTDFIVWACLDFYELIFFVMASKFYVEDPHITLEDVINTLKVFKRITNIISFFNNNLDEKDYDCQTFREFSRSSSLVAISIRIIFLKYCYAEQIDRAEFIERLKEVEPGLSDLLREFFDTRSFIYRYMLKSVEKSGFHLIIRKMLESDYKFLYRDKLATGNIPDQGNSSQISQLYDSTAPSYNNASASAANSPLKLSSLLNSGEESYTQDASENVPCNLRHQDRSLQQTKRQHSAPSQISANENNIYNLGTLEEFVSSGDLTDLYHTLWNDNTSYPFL
# Test: PBM E-score (8-mer binding enrichment) (E-score (-0.5 to 0.5)); higher = stronger / more preferred TF binding; most listed sequences are background and not binding sites
# Details: protein concentration: 200 nM; construct: GST-full length
# How it was run: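 Yeast transcription factors, full-length or as DNA-binding domains, were expressed with a GST tag using PURExpress in vitro transcription/translation. At about 100-200 nM they were applied to universal all-10-mer Agilent arrays, double-stranded by primer extension on fresh or once-stripped slides. Fluorescent anti-GST detected bound protein, and masliner normalised the scans. E-scores for ungapped eight-base words, pooled with reverse complements, came from the Universal PBM Analysis Suite.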
row,Sequence,PBM E-score
1,GAACAGTC,-0.0175
2,AGAAAGAG,-0.118
3,ACTCAGGC,-0.138
4,CCTGTCAA,-0.219
5,AGCACCCT,-0.284
6,GTTATGTA,-0.0105
7,ATCCATTG,0.101
8,GGCATGGA,0.145
9,AGCGCCAG,-0.125
10,CTGAATGC,-0.0711
11,AACATATC,0.0881
12,CGGGAGAC,0.335
13,GCTCGGGA,0.262
14,AGGAGCTG,0.0427
15,AAGGGCGA,-0.141
16,TCCAGGGA,-0.18
17,CACACTCC,-0.114
18,ACAGGGCG,0.0375
19,ATCCCGTG,0.396
20,CGCTTGAC,-0.00808
21,CGTATTAC,0.0603
22,GACCCTAA,-0.0397
23,GAGTTTAA,0.0984
24,ATTCAGGG,0.0218
25,CGCATTGA,0.0763

row,Sequence,PBM E-score
1,CTCTGAAC,-0.22
2,CGGATGAC,0.287
3,CCGAACAA,0.24
4,AAGGTTGA,-0.207
5,CTCAGCAG,-0.145
6,CGTTCACA,-0.0297
7,CACCAGGA,-0.0868
8,TACGGTGA,-0.161
9,GCCAGGGC,-0.101
10,CTCTGCCC,0.0172
11,AAGGACTA,-0.193
12,AGCGGGCC,0.057
13,CGCCCTCC,0.0638
14,ACTTCTTC,0.00457
15,TCAGAAAA,-0.249
16,AAGGTCAC,-0.213
17,CCCCTCTA,-0.265
18,CCTGCTGA,0.0336
19,AACTACAG,-0.023
20,GAGCAAGC,0.0185
21,AATCTAGT,0.11
22,AGGGGGAA,-0.265
23,TAGGGCCA,-0.245
24,AAAAGTTG,0.00957
25,TAGGCTGA,-0.189

row,Sequence,PBM E-score
1,CGCCAATC,-0.0518
2,ACCGTCAG,-0.0359
3,CAAACTCA,0.056
4,CGCAGGAC,0.0591
5,CATATATG,-0.135
6,CGAGGGGC,-0.175
7,CCCACTCG,0.00152
8,ATTAGTTC,0.0648
9,ACCTTTCC,0.242
10,TAGAGTCA,-0.109
11,ATGCTCCC,-0.0872
12,GTTTTCCA,-0.00276
13,ATCGGACG,0.209
14,GGTGAAGA,-0.0926
15,ACTAGCGG,0.0484
16,CAAGGAAA,0.00732
17,ATACAGCA,0.00398
18,TACTTGGA,-0.107
19,GTGACGGA,0.31
20,CAGCCGGG,0.229
21,TATGTTAA,-0.136
22,GGCCCTGA,-0.183
23,CGCGACTA,0.101
24,AAAAGACT,-0.222
25,AATGTCAT,-0.043

row,Sequence,PBM E-score
1,GACGAGAC,-0.0318
2,CGCTCTAA,-0.162
3,CAAACATA,-0.155
4,ATGTTCGG,0.177
5,ACGTGATC,0.0401
6,CTATACTA,0.0568
7,AGACCAAA,-0.0726
8,GCAATTAA,0.0225
9,AAGGAGAG,-0.333
10,AATCTCGC,0.0665
11,AAGCACAA,-0.0605
12,CAGCATTA,-0.138
13,CTAGCCAG,-0.192
14,GGCTATAC,0.0316
15,AACTTTTG,0.0403
16,ACCTAACT,-0.0194
17,GATGTGGA,0.0996
18,GAATCCGA,0.273
19,AGGTGAAC,-0.0422
20,CTTCGTAC,-0.13
21,GACCCCCA,-0.218
22,CCTCAACG,-0.248
23,ATCATTCC,0.281
24,CTACAAAC,-0.221
25,ATCCACTC,0.181

row,Sequence,PBM E-score
1,TCGAGCCA,-0.0567
2,ACCTTTTG,-0.0905
3,CTCCAGTC,-0.00017
4,CGGAAACG,0.396
5,AGTGAGGG,-0.121
6,ACGGCATA,0.131
7,AAGGACTC,-0.108
8,AAACGTAG,-0.175
9,AACAGTTG,-0.156
10,ATTAGCGC,0.166
11,ACCCGCCT,-0.058
12,TATTCGGA,0.328
13,GAACCGGA,0.416
14,CGACCGAC,0.0782
15,TGGGCGAA,0.0243
16,AGGATGCA,-0.117
17,ATCCGTTA,0.364
18,AGTAATCA,0.134
19,CAAAGACA,-0.0391
20,ACGTCCTA,0.154
21,GAACGCAC,0.133
22,GCTATCAC,-0.138
23,GTACGCGA,-0.214
24,TGGCCACA,0.00252
25,ACAAATTG,-0.0205

row,Sequence,PBM E-score
1,ATATCCGG,0.384
2,CCTGGTTA,-0.18
3,TCTCAGCA,-0.228
4,CGATCGCA,0.0259
5,AGGTCCGC,0.291
6,AAAGCTAA,-0.18
7,GGACCTGA,0.0919
8,ATGCAGGG,-0.0412
9,CCACTCGC,-0.0198
10,CAGTCGGG,0.163
11,TACGCACA,-0.103
12,CGCTGGGC,-0.0176
13,ACAAATAA,-0.0268
14,AACCCGCT,0.176
15,ACTGAATA,-0.0651
16,AGAGACCA,-0.201
17,AACGACTA,-0.171
18,TCCGGCAA,0.356
19,CGAGGTAA,0.0804
20,CTTAGGTA,-0.0904
21,CAATCACG,0.147
22,TGTAAGAA,-0.00235
23,AATAATGG,-0.0232
24,TAACTAGA,0.0866
25,CGGTTATC,0.129

row,Sequence,PBM E-score
1,GGTAGATA,0.0651
2,ATAAACAG,-0.0846
3,ACATACGC,0.0424
4,AAATACTT,0.13
5,GGCGTAAC,-0.262
6,ATGATACA,-0.0776
7,AAGACTCA,-0.346
8,AGTTGCAA,-0.101
9,ACGCACTC,-0.123
10,AGTAGCAT,-0.0675
11,AAACTTGA,-0.142
12,ACTGCCGA,0.207
13,CACACAAC,-0.131
14,GCTACAGC,-0.0518
15,GATTGGCC,0.0353
16,AAACAGTT,0.0427
17,GCCCCCCA,-0.254
18,ACTTTTCT,-0.107
19,ATGCTGCA,-0.219
20,TCTTAAGA,-0.152
21,AAATCGGG,0.195
22,ATATCTAA,-0.0673
